This note sets out measurements from PubChem BioAssay AID1508624 (National Center for Advancing Translational Sciences (NCATS), 2021).

In all, about 48,000 compounds went through this assay and about 120 (0.25%) were called active. About 4% were inconclusive and are not listed. Calls come from the whole dose curve; as a rule, active = well fitted activation curve with a large enough effect; inconclusive = small, poorly fitted or top-dose-only effect, or another doubt; inactive = no such curve, though single readings can be large or run the other way. This is one part of the list.

The nature of this test: Primary qHTS for Identification of Small Molecule Activators of Huntingtin-Antisense Promoter Activity. Note: nearly all actives have a fitted effect of over 55% in size. The note with it: HEK293 HTT-AS promoter firefly luciferase reporter (activity 0% = vehicle and -100% = no light), 24 h; series mostly up to 57.5 µM; activity change, positive = activation: at the top concentration. An outline of the steps: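 Firefly luciferase signal from promoter-reporter HEK293 cells was scaled between vehicle (0%) and zero RLU (-100%). Compounds were tested at final concentrations of up to 57.5 uM over 24 h at 37 degrees C. PTC124 at 50 uM final served as control inhibitor.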
On to `COc1cc2nc(NCc3ccccc3Cl)n3nc(-c4cccnc4)nc3c2cc1OC`, for which the “activity change, positive = activation” value was inactive: -18.3%.
In the case of `COc1ccc(Cn2c(C(=O)O)c(CNC3CCC(C)CC3)c3ccc(C)cc32)cc1` (stereo unspecified) it was inactive: -20%.
The value for `COc1cc(C(=O)N2CCC(c3ccncc3)CC2)cc(OC)c1OC` was inactive: -16.9%; that for `COc1cccc(CNC(=O)c2cc(-c3cccs3)nc3ccccc23)c1` was inactive: -14.2%.
The value for `COCCCNC(=O)CSc1nc2nc(C)c(Cc3ccccc3Cl)c(C)n2n1` was inactive: -23.3%.
For `CC(=O)N1CCCc2cc(S(=O)(=O)NCc3ccc(N(C)C)cc3)ccc21`, the “activity change, positive = activation” value was inactive: -22.8%.
As for `COc1cccc(C(=O)Nc2ccc3nc(SCc4ccc(C)cc4)sc3c2)c1`, the “activity change, positive = activation” value is inactive: -31.5%.
As to `Cn1nc(-c2ccccc2)c(-c2ccccc2)c(C(=O)Nc2ccc(S(N)(=O)=O)cc2)c1=O`, the “activity change, positive = activation” value is inactive: -20.4%.
The value for `Cc1cccc(-n2c(SCC(=O)Nc3ccccc3Cl)nc3n[nH]c(C)c3c2=N)c1` was inactive: -49.6%; that for `CCCOc1ccc(C(=O)Nc2ccc(NC(=O)c3cccc(Cl)c3)cc2)cc1` was inactive: 3.9%.
The value for `Cc1ccc(C)c(N2CCN(C(=O)c3cc(S(=O)(=O)N4CCCC4)c[nH]3)CC2)c1` was inactive: -23.5%; that for `COc1ccc(NC(=O)c2c(NCc3cccc(OC)c3)sc3c2CCC3)cc1` was inactive: -15.7%; that for `CCc1ccc(S(=O)(=O)Nc2cc(-c3cn4ccccc4n3)ccc2C)cc1` was inactive: -2.18%.
In the case of `Cc1cccc(Nc2ncnc3c2cnn3C)c1C` it was inactive: 2.35%; in that of `COc1ccc(C)c2sc(N(Cc3cccnc3)C(=O)COc3ccccc3)nc12`, inactive: -33.8%; in that of `Cc1ccc2c(c1)N(C(=O)N1CCC(C(=O)NC3CCCCCC3)CC1)CCO2`, inactive: -19.4%.
`Cc1ccc(-n2ncc3c(N4CCN(C)CC4)ncnc32)cc1`: the “activity change, positive = activation” value was inactive: -59.9%.
The value for `COc1cc(OC)cc(C(=O)NCc2ccc3c(c2)CCN3C(=O)c2ccccc2)c1` was inactive: -39.1%; that for `O=C(NCc1ccccc1Cl)C(=O)NCC(c1ccco1)S(=O)(=O)c1cccs1` (stereo unspecified) was inactive: -8.97%; that for `O=C(O)c1ccc(-n2nc(-c3ccccc3O)nc2-c2ccccc2O)cc1` was inactive: -7.34%.
In the case of `COc1ccccc1CNC(=O)C1CCN(c2nn3c(=O)cc(C)nc3s2)CC1` it was inactive: -15.8%; in that of `CCC1CCCCN1CCCNC(=O)c1cc2c(Cl)nc3ccc(C)cc3c2s1` (stereo unspecified), inactive: -28.8%.
On to `COc1ccc(Cn2c(=O)c3oc4ccccc4c3n(CC(=O)Nc3cc(C)cc(C)c3)c2=O)cc1`, for which the “activity change, positive = activation” value was inactive: -0.66%.
As to `Cc1c2cnn(CC(=O)NCCc3ccccc3)c(=O)c2c(C)n1Cc1ccccc1Cl`, the “activity change, positive = activation” value is inactive: -3.78%.
The value for `CCC1CCCCN1CCCNC(=O)c1ccc2c(c1)N(Cc1cccc(C)c1)C(=O)c1ccccc1S2(=O)=O` (stereo unspecified) was inactive: -13.8%; that for `COc1ccc(/C=C(\C#N)c2nc(-c3ccc(Cl)c(Cl)c3)cs2)cc1OC` was inactive: -2.96%; that for `COc1cc(C(=O)NCC(c2ccc(N(C)C)cc2)N2CCCC2)cc(OC)c1OC` (stereo unspecified) was inactive: -6%.
In the case of `CCOc1ccc(NC(=O)CSc2nc3nc(C)c(Cc4ccccc4)c(C)n3n2)cc1` it was inactive: -11.9%; in that of `O=C(COc1ccccc1F)NC1CC(=O)N(c2ccc3c(c2)OCCO3)C1` (stereo unspecified), inactive: -1.73%.
For the molecule `CCc1ccccc1NC(=O)CSc1nc2c(oc3ccccc32)c(=O)n1-c1ccccc1`, the “activity change, positive = activation” value is inactive: -14.8%.
On to `CCOc1ccc(NC(=O)CN2C(=O)CCSc3ccc(S(=O)(=O)N4CCCC4)cc32)cc1`, for which the “activity change, positive = activation” value was inactive: 8.31%.
In the case of `O=C(NCC(c1cccnc1)N1CCOCC1)C(=O)Nc1cccc(Cl)c1` (stereo unspecified), the “activity change, positive = activation” value is inactive: -9.31%.
For the molecule `CSc1ccc(CCNC(=O)c2sc3ncccc3c2-n2cccc2)cc1`, the “activity change, positive = activation” value is inactive: -32.1%.
For `COc1cccc(-n2cc(C(=O)NCCc3cccc(C)c3)c3ccccc3c2=O)c1`, the “activity change, positive = activation” value is inactive: -29.7%.
On to `Cc1ccc(C)c(N2CCN(C(=O)C(C)n3nc(C)c4sc5ccccc5c4c3=O)CC2)c1` (stereo unspecified), for which the “activity change, positive = activation” value was inactive: -10.8%.
As for `COC(=O)c1ccc(NC(=O)N2CCc3c([nH]c4ccccc34)C2c2ccc(C)cc2)cc1` (stereo unspecified), the “activity change, positive = activation” value is inactive: -42%.
In the case of `CCCCOC(=O)c1ccc(NC(=O)c2ccc3c(c2)CCN3S(=O)(=O)c2ccccc2)cc1` it was inactive: -24.3%; in that of `Cc1ccc2nc(CSc3nnc(NC(=O)COc4ccccc4F)s3)cc(=O)n2c1`, inactive: -6.61%.
`COc1ccc(C)cc1N(CC(=O)N1CCC(C)CC1)S(=O)(=O)c1ccc(C)cc1`: the “activity change, positive = activation” value was inactive: -11.1%.
Turning to `Nc1c(C(=O)c2ccc3c(c2)OCO3)sc(Nc2ccccc2F)c1S(=O)(=O)c1ccccc1`, the “activity change, positive = activation” value is inactive: -24.6%.
`COc1ccc(C2CC(=O)c3cc(-c4nc(-c5cccc([N+](=O)[O-])c5)cs4)c(=O)n(-c4cc(C)cc(C)c4)c3C2)cc1` (stereo unspecified): the “activity change, positive = activation” value was inactive: -5.8%.
The value for `CCOC(=O)CSc1nc2sc3c(c2c(=O)n1CC)CCCC3` was inactive: -23.3%; that for `O=C(CCCn1c(=O)c2sccc2n(Cc2c(F)cccc2Cl)c1=O)NCc1ccccc1` was inactive: 6.49%.
`Cc1cnc2c(c1SCC(=O)N(C)c1ccccc1)c(=O)n(C)c(=O)n2C`: the “activity change, positive = activation” value is inactive: -5.37%.
The value for `Cn1c(=O)c2c(-c3ccccc3Br)n(C(C)(C)C)cc2n(C)c1=O` was inactive: -30.8%.
As to `CCOc1ccccc1CNS(=O)(=O)c1cnc(N)nc1`, the “activity change, positive = activation” value is inactive: -8.98%.
In the case of `COc1ccccc1Cn1c(CNS(=O)(=O)c2ccc(Cl)s2)nc2cccnc21` it was inactive: -29.9%.
For `CC(=O)c1cccc(NC(=O)Cn2cnc3c2c(=O)n(C)c(=O)n3C)c1`, the “activity change, positive = activation” value is inactive: -18.5%.
The value for `CCOC(=O)c1cccc(NC(=O)Cc2ccc(NC(=O)N3CCCCc4ccccc43)cc2)c1` was inactive: -8.27%; that for `CCC(=O)N1CCc2cc(Br)cc(S(=O)(=O)N3CCCC(C(=O)Nc4ccc(CC)cc4)C3)c21` (stereo unspecified) was inactive: -14.4%; that for `COc1ccc(-n2c(CCC(=O)O)ccc2-c2ccccc2)cc1` was inactive: 11.1%.
In the case of `CCOC(=O)c1c(C)[nH]c(C)c1S(=O)(=O)N1CCCC(C(=O)N2CCN(c3ccc(Cl)cc3)CC2)C1` (stereo unspecified) it was inactive: -12.3%; in that of `Cc1nnc(N2CCN(c3ccccc3)CC2)c2c1nnn2Cc1ccc(F)cc1`, inactive: 10.2%; in that of `O=C(Nc1ccccc1C(=O)OCc1cc(=O)n2c3c(sc2n1)CCCC3)c1ccc(Cl)cc1`, inactive: -24.6%.
In the case of `CCOC(=O)c1[nH]c(C)c(CCC(=O)N2CCN(c3cc(Cl)ccc3C)CC2)c1C`, the “activity change, positive = activation” value is inactive: -36.9%.
In the case of `O=C1Nc2c(c(=O)[nH]c(=O)n2-c2ccc(Cl)cc2)C1(NS(=O)(=O)c1ccccc1)C(F)(F)F` (stereo unspecified) it was inactive: 13.6%.
In the case of `Cc1ccc(C)c(NC(=O)CCn2cnnn2)c1` it was inactive: -9.11%.
For `NCCS`, the “activity change, positive = activation” value was inactive: 3.86%.
The value for `O=C(Cc1ccccc1)NC1CC(=O)N(c2ccc3c(c2)OCCO3)C1` (stereo unspecified) was inactive: -9.43%; that for `Cc1cc2c(cc1S(=O)(=O)CCC(=O)NCc1ccccc1)OCC(=O)N2` was inactive: -12.1%; that for `COCCOC(=O)C1=C(C)NC(C)=C(C(=O)OC(C)C)C1c1cccc([N+](=O)[O-])c1` (stereo unspecified) was inactive: -3.49%.
